About 540 (0.36%) of roughly 150,000 compounds showed an effect of 50% or more. The list shows a part of the results.
These compounds were tested on Plasmodium falciparum (assay: Primary screen in NF54 nanoGlo assay, in single point, at 2uM, 72h; a lower Z score goes with more inhibition). Conditions: timepoint 72 hour.
Format: functional, Erythrocyte

SMILES	% Inhibition [%]	Z score
CC(C)N(C(=O)NC(=O)Nc1ncccn1)S(C)(=O)=O	-43	5
COCc1ncc(CN2CCOc3c(O)cc(-c4ccc(C)cc4)cc3C2)cn1	-8	0.94
CN(C)Cc1ccccc1C(=O)N1CCC2(CC1)COC(=O)N2	-3	0.48
Cc1ccc(-n2nc(C(=O)NCCN3CCOCC3)c(=O)n(Cc3ccc(C(F)(F)F)cc3)c2=O)cc1	-9	1.16
O=C(Nc1nccs1)c1ncc(-c2ccccc2)o1	0	-0.03
CC(C)CN(Cc1ccccc1)C[C@H](O)COC(C)(C)C	-12	2.38
CN(C)c1ncc(Br)cc1C(=O)NCc1cccc(=O)[nH]1	-3	0.52
COc1ccc(COCC(=O)N2CCC[C@@H]3C[C@@]32C(N)=O)cc1	-1	0.17
CC(C)C[C@@H]1N[C@H](C(=O)NCc2ccc(F)cc2)Cc2c[nH]c3cccc1c23	2	-0.24
O=C(c1ccco1)N(Cc1ccc(-c2cc(Cl)ccc2Cl)o1)[C@H]1CCS(=O)(=O)C1	-3	0.36
CCCn1nccc1S(=O)(=O)NCc1cc(C2CC2)on1	19	-2.68
Cc1c(CN2C[C@@H](CN(C)CCO)[C@@H](CO)C2)[nH]c2c(Cl)cccc12	-4	0.51
O=C1NC2(CCCCC2)C(=O)N1Cc1cc(Cl)c2c(c1)OCCO2	-32	3.72
O=C(Cc1c(F)cccc1Cl)N1CCN(c2cccc3c2C(=O)N(Cc2ccncc2)C3=O)CC1	8	-1
Cc1ccc(C)c(-c2n[nH]cc2CN2CCn3nc(C(=O)O)cc3C2)c1	-15	1.91
Cc1csc(C(C)(C)NC(=O)NCCC2=CCOCC2)n1	-11	1.51
O=C(Cc1c[nH]c2ccccc12)N[C@H]1CCCNC1=O	-9	0.86
COCCN1CCC(c2ncnn2Cc2cccc(OC)c2)CC1	-14	1.91
Cc1cccc([C@@H](C)CNC(=O)N(CC(=O)O)C(C)C)c1	-4	0.71
C[C@@H](CS(=O)(=O)N(C)C)NCc1cccc(N(C)C)c1	-3	0.35
O=C(N[C@H]1[C@@H]2COC[C@@H]21)N1CCC(C2CCOC2)C1 (stereo not given in full)	-1	0.2
O=C(COc1ccc(S(=O)(=O)N2CCCC2)cc1)N1CCCCCC1	-8	1.19

SMILES	% Inhibition [%]	Z score
CC1(C)CC(=O)c2c(nc3c(c2-c2ccccc2)C(=O)CC(C)(C)C3)C1	-8	1.09
CCCNC(=O)c1c(/C=C(/O)c2ccccc2)nc(-c2ccccc2)c(C#N)c1C	-42	4.96
O=C(NCC1C2COCC12)N1C2CCC1CC1(C2)CC1(F)F (stereo not given)	-8	1.25
CCN1c2cc(C)ccc2-n2cccc2C12CCN(S(=O)(=O)c1c(C)noc1C)CC2	4	-0.58
O=C(c1ccc(Cl)cc1)N1CCCC1C1CCCN(Cc2ccccc2)C1 (stereo not given)	-5	0.7
COC(=O)C(OC(=O)C1CCC(=O)NC1)C(C)C (stereo not given)	2	-0.33
Cc1ccc2c(c1)CCCN2C(=O)c1sc(C)nc1C	10	-1.56
CCCc1nc(C(=O)N2CC[C@H](c3ccnc(-c4ccncc4)c3)C2)cs1	-17	1.73
Cc1cccc(Cn2cnc3c2c(=O)n(C2CC2)c(=O)n3-c2cccc(C)c2)c1	-18	1.7
CC(C)n1nc(Cc2cccs2)nc1-c1ccc(CO)cc1	-19	1.72
CN(C)c1noc(-c2ccnn2C2CCCC2)n1	7	-0.92
CCOC(=O)C1CCN(c2cc3c(cc2NC(=O)NC2CCCC2)n(C)c(=O)n3C)CC1	-2	0.41
C#CCN(C)C(=O)c1ccc(O)cc1C	-5	0.67
O=C(C[C@H]1CCC2(CCOCC2)CO1)Nc1cccnc1C1CC1	5	-0.7
CCOC(=O)c1c(C)[nH]c(CCC(=O)Nc2cc3c(cc2C(=O)OC)OCO3)c1C	-1	0.16
CC(C)(C)OC(=O)NCC(NC(=O)C1CCS(=O)(=O)C1)C1CC1 (stereo not given)	-8	1.03
COc1ccccc1CC(=O)Nc1cc(S(=O)(=O)N2CCOCC2)ccc1N1CCOCC1	-6	0.96
COc1ccc(-c2ccno2)cc1S(=O)(=O)NCc1nc(C)cs1	7	-0.93
CCc1nccn1CCC(=O)N(C)Cc1cccnc1	-1	0.1
CCC[C@H]1CN(c2nccc(N)n2)C[C@@H]1NS(C)(=O)=O	-9	1.69
CCC(C)N(CC(=O)N(Cc1ccco1)CC1CCCO1)C(=O)C(C)C (stereo not given)	-8	1.14
O=C1C[C@H](CNC(=O)N2CCC(CCc3ccc(F)cc3F)CC2)CN1	-6	1.19

SMILES	% Inhibition [%]	Z score
Cc1nc(NC2C3CCOC3C2(C)C)nc(N(C)C)n1 (stereo not given)	-17	2.4
Cc1cc(C)c2sc(N3CCN(C(=O)NC4CCCC4)CC3)nc2c1	16	-1.87
CCc1ncsc1NC(=O)NCCc1ccc(O)cc1	-12	1.34
CCN(C(=O)[C@H]1[C@@H]2C[C@@H]3[C@H]1C(=O)O[C@@H]3C2)c1cccc(C)c1	-15	2.08
COc1ccc(C(=O)N2C[C@@H]3C[C@H](N(C)C)CN3C(=O)[C@@H]2C)c(C)c1	-10	1.63
O=C(NCCn1ccnc1)c1[nH]nc(C2CC2)c1Cl	-9	1.61
Cc1nn(CCO)cc1CN1CC(N2CCOCC2)C1	-4	0.85
Cc1nc(C(F)(F)F)c(CN(C)C[C@H]2CCOC2)s1	-8	1.25
C[C@@H](Cn1cccn1)C(=O)NCCc1csc(N)n1	-9	1.25
Cc1c(F)cccc1C(=O)N(C)Cc1cc(C2CC2)on1	1	-0.14
O=C(CCc1nc2ccccc2c(=O)[nH]1)N1CCC1	-14	2.16
CC(=O)N[C@H](c1nc(-c2cc(C)c3[nH]cnc3c2)no1)C1CCCC1	1	-0.16
c1ccc(C(c2ccccc2)c2nc(-c3cccnn3)no2)cc1	-18	2.25
O=S(=O)(c1cc(F)cc(F)c1)N(CCCN1CCOCC1)[C@H]1CCCNC1	-3	0.33
Cc1c(NC(=O)N2CC[C@H](CN3CCCCC3)C2)cccc1N(C)C	-11	0.98
C[C@H](Oc1ccc(F)cc1)C(=O)N1CCN2CCOc3cccc1c32	-8	1.14
CCC1CCC(C)N1C(=O)C1OCCC1C (stereo not given)	-8	0.69
CC(C)c1nc(CNc2cc([C@H]3C[C@H](N)C3)nc(C3CC3)n2)no1	2	-0.35
O=C(c1cscn1)N(CC(F)(F)F)[C@H]1CCCOC1	4	-0.65
COc1cc2c(cc1CNc1nc(N)nc3c1CCNCC3)CCC2	28	-3.73
Cc1ncc(CN2CCOC[C@@H](C3CCC3)C2)cn1	2	-0.25
CC(=O)Nc1nc(C(=O)NCc2sccc2C)cs1	-7	1

SMILES	% Inhibition [%]	Z score
Cc1nc2ccc(NC(=O)N3CCC(Cn4ccnc4C)CC3)cc2nc1C	5	-0.47
Cc1ccn(CC(=O)NC2CCN(C3CCCCC3O)CC2)c(=O)c1 (stereo not given)	1	-0.17
COCc1nc([C@@]2(C)CCCN(C(=O)CCc3ccc(OC)cc3)C2)no1	-1	0.14
O=C1CC[C@]2(CNC(=O)c3ccc(F)cc3)CCC=C2N1	-14	1.96
CC[C@H](O)Cn1ncnc1-c1cccc2c(C)c(C)[nH]c12	-11	1.73
CC(C)c1ccc(OC[C@H]2CN(C(=O)c3ccccc3)CCO2)cc1	-7	0.99
COc1ccc(NC(=O)c2cc(S(=O)(=O)N3CCOCC3)ccc2Oc2ccccc2)cc1	-5	0.84
Cc1cnn(C2CN(C(=O)[C@@H]3CN(S(=O)(=O)c4ccccc4Cl)CCO3)C2)c1	-3	0.35
N#CC1CCC(NCC(c2ccco2)N2CCCC2)C1 (stereo not given)	-10	1.42
O=C(Nc1ccccc1-c1ncco1)[C@H]1CCCO1	10	-1.49
O=C(CCc1ccc(F)c(F)c1)NCc1noc([C@@H]2CCCO2)n1	-7	1.29
O=C(c1ccc2c(c1)CCC2)N1CC(O)C1	0	0
CCN1CCCN(CCOc2cccc(C#N)c2)CC1	-1	0.11
Cc1nnnn1Cc1ccc(C(=O)N2CC[C@@](O)(c3ccccc3)[C@H]3CCCC[C@H]32)cc1	-6	0.59
CCC(CC)NC(=O)c1ccccc1Br	-7	1.32
COCCOCC(=O)N1CCC2(CC1)c1[nH]c3ccc(OC)cc3c1CCN2C	3	-0.59
O=C(COc1ccc(F)cc1)NCCNC(=O)c1nc(-c2ccc(F)cc2)no1	-10	1.36
Cc1ncsc1CN1C[C@@H](F)C[C@H]1CN(C)c1nnc(C2CC2)o1	24	-2.73
Cn1nccc1[C@@H]1CN(C(=O)CC2CCCCC2)C[C@H]1N	-4	0.65

Reference: ChEMBL document CHEMBL4888484, “Replenishing the malaria drug discovery pipeline: Screening and hit evaluation of the MMV Hit Generation Library 1 (HGL1) against asexual blood stage Plasmodium falciparum ,using a nano luciferase reporter read-out” (2022)
